T1: rhBMP-2 (Homo sapiens, UniProt P12643)
T1 construct: purchased R&D Systems; host or cells: CHO
T1 sequence (P12643 283-396): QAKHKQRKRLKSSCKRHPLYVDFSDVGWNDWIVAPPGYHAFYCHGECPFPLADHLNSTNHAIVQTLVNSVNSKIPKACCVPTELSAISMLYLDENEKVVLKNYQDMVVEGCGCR


What was measured:
[1] = tested on: PlGF-2-engineered growth factors; assay: Binding assay to engineered super-affinity growth factors (ELISA); conditions: 100 nM GF coated, 100 nM FabCol variant
Description: Engineered super-affinity growth factors and mouse wild-type VEGF-C were produced as described in Martino et al., Science, 2014. Other wild-type recombinant human growth factors were purchased from R&D Systems or Peprotech (Rocky Hill N.J., USA). Growth factors were coated on medium-binding plates (Greiner) at a concentration of 100 nM for 1 h at 37° C. Plates were then blocked with 2% BSA in PBS for 2 h at room temperature. Then, the FabCol variants (100 nM) were diluted in 1% BSA and incubated in the wells for 1 h at room temperature. The plate was washed four times in PB ST and an HRP-anti-human Fab antibody was used to detect bound FabCol variants. Plate absorbance was read as described above.

rhBMP-2 = molecular target: T1, rhBMP-2; assay: Binding assay to rhBMP-2 (ELISA); conditions: 50 nM rhBMP-2 coated, 50 nM FabCol variant
Description: ELISA plates (NUNC MaxiSorp) were coated with 50 nM of recombinant human BMP-2 (CHO produced, R&D Systems, Minneapolis Minn., USA) overnight at room temperature. The plate was then blocked using 2% BSA for 2 h at room temperature, after which the plate was washed in PBST and incubated with 50 nM of the FabCol-FgHBD conjugates, FabCol-LamLG4 or FabCol-p(FgHBD) recombinant proteins diluted in PBS-0.05% Tween (PBST)+0.1% BSA.

Molecule | binding to PlGF-2-engineered growth factors vs non-engineered wild-type growth factors [1] | binding to rhBMP-2 (rhBMP-2)
FabCol-LamLG4: fusion: LamLG4 domain at C-terminus of FabCol heavy chain via glycine-serine linker; SEQ ID NO: 71 (protein) light: EIVLTQSPGTLSLSPGERATLSCRASQSVSSSYLAWYQQKPGQAPRLLIYGASSRATGIPDRFSGSGSGTDFTLTISRLEPEDFAVYYCQQAIGFPQTFGQGTKVEIKRTVAAPSVFIFPPSDEQLKSGTASVVCLLNNFYPREAKVQWKVDNALQSGNSQESVTEQDSKDSTYSLSSTLTLSKADYEKHKVYACEVTHQGLSSPVTKSFNRGEC heavy: [letters of about 100 residues not shown]TLAAFDYWGQGTLVTVSSASTKGPSVFPLAPSSKSTSGGTAALGCLVKDYFPEPVTVSWNSGALTSGVHTFPAVLQSSGLYSLSSVVTVPSSSLGTQTYICNVNHKPSNTKVDKRVEPKSCGSGGGSGGSLNKPPFLMLLKGSTRFNKTKTFRINQLLQDTPVASPRSVKVWQDACSPLPKTQANHGALQFGDIPTSHLLFKLPQELLKPRSQFAVDMQTTSSRGLVFHTGTKNSFMALYLSKGRLVFALGTDGKKLRIKSKEKCNDGKWHTVVFGHDGEKGRLVVDGLRAREGSLPGNSTISIRAPVYLGSPPSGKPKSLPTNSFVGCLKNFQLDSKPLYTPSSSFGVSSCTG | significantly higher | strongly bound
FabCol-p(FgHBD): fusion: 3 copies of FgHBD at C-termini of both light and heavy chains of FabCol; SEQ ID NO: 72, 73 (protein) light: EIVLTQSPGTLSLSPGERATLSCRASQSVSSSYLAWYQQKPGQAPRLLIYGASSRATGIPDRFSGSGSGTDFTLTISRLEPEDFAVYYCQQAIGFPQTFGQGTKVEIKRTVAAPSVFIFPPSDEQLKSGTASVVCLLNNFYPREAKVQWKVDNALQSGNSQESVTEQDSKDSTYSLSSTLTLSKADYEKHKVYACEVTHQGLSSPVTKSFNRGECGAGGGSGGGHRPLDKKREEAPSLRPAPPPISGGGYRARPAKAAATQKKVERKAPDAGGGSGGGSGGGHRPLDKKREEAPSLRPAPPPISGGGYRARPAKAAATQKKVERKAPDAGGGSGGGSGGGHRPLDKKREEAPSLRPAPPPISGGGYRARPAKAAATQKKVERKAPDAGGGT heavy: [letters of about 100 residues not shown]TLAAFDYWGQGTLVTVSSASTKGPSVFPLAPSSKSTSGGTAALGCLVKDYFPEPVTVSWNSGALTSGVHTFPAVLQSSGLYSLSSVVTVPSSSLGTQTYICNVNHKPSNTKVDKRVEPKSCGSGGGSGGGHRPLDKKREEAPSLRPAPPPISGGGYRARPAKAAATQKKVERKAPDAGGGSGGGSGGGHRPLDKKREEAPSLRPAPPPISGGGYRARPAKAAATQKKVERKAPDAGGGSGGGSGGGHRPLDKKREEAPSLRPAPPPISGGGYRARPAKAAATQKKVERKAPDAGGTG | – | strongly bound

— patent US11732029B2, “Methods and compositions for the treatment of wounds” (The University of Chicago, priority 2017, dated 2023)
